These results are taken from the supplement of paper PMC4723716.

± gives the uncertainty stated by the source. Whole data set: some 9,900 compounds, median “viability index relative to DMSO control” near 1, cut for the lowest 2% near 0.85. Some of the results follow.

The assay deals with Plasmodium falciparum NF54 stage V gametocytes. Put plainly: viability index relative to DMSO control (fraction); higher = less gametocyte killing. Conditions: 2.5 µM, library set: Broad Institute DOS, incubation time: 72 h. How it is done:
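Broad DOS informer set and blood-stage-active DOS compounds screened in duplicate at 2.5 µM against P. falciparum NF54 stage V gametocytes with the serum-free one-step SaLSSA (1536-well): 72 h at 37 °C under low oxygen, then saponin lysis and MitoTracker Red CMXRos staining, with high-content imaging. Viability index = viable-object count divided by the plate mean of DMSO wells (0 = killed, about 1 = inactive).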
For `CO[C@@H]1CC[C@@H]2CCN(C)C(=O)[C@@H](C)N(C)C(=O)c3cccc(C#N)c3OC[C@@H]1O2`, the viability index turned out to be 1.11 ± 0.048.
Consider `O=C(C1CCOCC1)N1CC(=O)N2[C@H](C1)[C@H](c1ccc(-c3cccnc3)cc1)[C@@H]2CO`, for which the viability index stood at 1.01 ± 0.13.
The result for `COc1ccc2c3c([nH]c2c1)[C@@H](CO)N(C[C@]31CCN(CC1)S(C)(=O)=O)C(=O)NC1CCCC1` reads 1.01 ± 0.02; that for `COc1cccc(S(=O)(=O)N(C)C[C@H]2OCc3ccccc3-c3c(n(C)c4ccccc34)C(=O)N([C@@H](C)CO)C[C@@H]2C)c1`, 0.956 ± 0.013.
The result for `C[C@H](CO)N1C[C@H](C)[C@@H](CN(C)C(=O)CCC(F)(F)F)OCc2cnnn2CCCC1=O` reads 1.02 ± 0.073.
The figure for `O=C(C[C@H]1CC[C@@H]2[C@H](COC[C@H](O)CN2C(=O)c2cnccn2)O1)N1CCN(c2ccccc2)CC1` is 1.024 ± 0.0091; for `C/C=C/c1ccccc1[C@H]1[C@@H](CO)N(c2nc(CC)cs2)[C@H]1C#N` it is 1.08 ± 0.065.
Compound `O=C(c1ccc2c(c1)OCO2)N1C[C@@H]2N[C@H](C1)[C@@H]2c1ccc(/C=C/c2ccccc2)cc1` yielded a viability index of 0.731 ± 0.086.
The figure for `CO[C@@H]1CN(C)C(=O)c2ccc(NC(C)=O)cc2OC[C@H](C)N(Cc2cccc(F)c2)C[C@H]1C` is 1.03 ± 0.072; for `COCC(=O)Nc1ccc2c(c1)[C@@H]1C[C@H](CC(=O)N[C@H](C)c3ccccc3)O[C@@H](CO)[C@@H]1O2` it is 0.982 ± 0.077.
In turn, `C[C@H](CO)N1C[C@H](C)[C@H](CN(C)C(=O)Nc2cccc(Cl)c2Cl)OCc2ccccc2-c2ccccc2C1=O` registered a viability index of 0.926 ± 0.049.
`O=C(Cc1ccccn1)N1[C@H](CO)[C@H]2c3ccccc3NC[C@H]21`: the viability index is 1.03 ± 0.022.
The result for `O=C([C@H]1[C@H](CO)[C@H]2Cn3c(ccc(C4=CCCCC4)c3=O)[C@@H]1N2Cc1nccs1)N1CCCCC1` reads 1.02 ± 0.018; that for `Cc1ccc(S(=O)(=O)N(C)C[C@@H]2Oc3cc(C#CC4CCCC4)ccc3S(=O)(=O)N([C@@H](C)CO)C[C@H]2C)cc1`, 0.648 ± 0.17.
The result for `Cc1cccc(-c2ccc([C@H]3[C@H]4CN(S(=O)(=O)c5ccccc5F)CCCCN4[C@H]3CO)cc2)c1` reads 0.973 ± 0.094; that for `COC(=O)C[C@@H]1CC[C@H]2[C@H](COc3ccc(NC(=O)Nc4cccc(C#N)c4)cc3C(=O)N2C)O1`, 1.11 ± 0.14.
The figure for `COc1ccc(NC(=O)Nc2ccc3c(c2)[C@@H]2C[C@@H](CC(=O)NCC(F)(F)F)O[C@@H](CO)[C@@H]2O3)cc1` is 1.06 ± 0.089; for `CO[C@@H](CN(C)Cc1cc(F)ccc1F)[C@H](C)CN(C(=O)Nc1ccc(C(F)(F)F)cc1)[C@@H](C)CO` it is 1.05 ± 0.018; for `C[C@H]1CN([C@@H](C)CO)C(=O)Cc2cc(NS(=O)(=O)c3ccc(Cl)cc3)ccc2O[C@H]1CN(C)C(=O)Nc1ccc(C(F)(F)F)cc1` it is 1.03 ± 0.023.
As for `C[C@H](O)C#Cc1ccc([C@@H]2[C@H](CO)N3CCCCN(CC4CC4)C[C@@H]23)cc1`, the viability index was determined as 1.01 ± 0.041.
The figure for `COc1ccc2c3c([C@H](CO)N(C)C[C@]33CN(C3)C(=O)Nc3c(C)noc3C)n(C)c2c1` is 1.05 ± 0.045; for `CN(C)CC(=O)N1[C@H](CO)[C@@H](c2ccccc2-c2ccccc2F)[C@@H]1C#N` it is 1.1 ± 0.037.
The result for `C/C=C/c1ccc2c(c1)O[C@@H](CN(C)C(=O)Nc1ccc(OC)cc1)[C@@H](C)CN([C@H](C)CO)S2(=O)=O` reads 1.09 ± 0.065; that for `CC(C)NC(=O)N1[C@H](C#N)[C@@H](c2ccccc2-c2ccc(F)cc2)[C@@H]1CO`, 1.01 ± 0.1; that for `O=C(C[C@H]1C[C@@H]2c3cc(NC(=O)Nc4ccccc4)ccc3O[C@@H]2[C@H](CO)O1)NCc1ccccc1`, 1.06 ± 0.03.
The result for `COCCNC(=O)C[C@H]1CC[C@@H]2[C@@H](COc3ccc(NS(=O)(=O)c4ccc(Cl)cc4)cc3C(=O)N2C)O1` reads 1.07 ± 0.082; that for `CO[C@@H]1CN(C)C(=O)c2ccc(NC(=O)c3ccc4c(c3)OCO4)cc2OC[C@@H](C)N(Cc2ccc3c(c2)OCO3)C[C@H]1C`, 0.926 ± 0.011; that for `COc1ccc2c3c([nH]c2c1)[C@@H](CO)N(C[C@]31CCN(CC1)C(=O)c1cnccn1)C(=O)NC(C)C`, 1.05 ± 0.023.
Regarding `OC[C@@H]1[C@H](c2ccc(-c3cccc(F)c3)cc2)[C@@H]2CN(Cc3cncnc3)CCCCN12`, the viability index was determined as 1.06 ± 0.047.
The figure for `CCC(=O)N1CC(=O)N2[C@H](CO)[C@@H](c3ccc(C#CCC(C)C)cc3)[C@@H]2C1` is 0.992 ± 0.11; for `CCCC(=O)N1C[C@@]2(C1)CN([C@H](CO)c1[nH]c3cc(OC)ccc3c21)S(=O)(=O)c1ccc(C)cc1` it is 0.946 ± 0.074.
The result for `O=C([C@@H]1[C@@H](CO)[C@@H]2Cn3c(cccc3=O)[C@H]1N2S(=O)(=O)c1ccccc1F)N1CCCCC1` reads 1.03 ± 0.042.
The result for `CC(C)[C@@H]1C(=O)N[C@H](c2cccc(Cl)c2)C/C=C/C[C@@H](C)Oc2ccccc2C(=O)N1C.CC(C)[C@@H]1C(=O)N[C@H](c2cccc(Cl)c2)C/C=C\C[C@@H](C)Oc2ccccc2C(=O)N1C` reads 1.06 ± 0.06; that for `COc1ccc(S(=O)(=O)Nc2ccc3c(c2)C(=O)N([C@@H](C)CO)C[C@H](C)[C@@H](CN(C)Cc2ccc(C(F)(F)F)cc2)OCCCC[C@@H](C)O3)cc1`, 0.829 ± 0.0097; that for `COCC#Cc1ccc([C@@H]2[C@@H](CO)N3C(=O)CN(C(=O)Nc4ccccc4F)C[C@H]23)cc1`, 1.062 ± 0.0012.
In turn, `CO[C@@H](CN(C)C(=O)c1cnccn1)[C@H](C)CN([C@@H](C)CO)S(=O)(=O)c1ccccc1` yielded a viability index of 0.94 ± 0.058.
The figure for `CCCC#Cc1ccc2c(c1)[C@@H]1[C@@H](CCN1S(=O)(=O)c1cccc(F)c1)[C@@H](CO)N2C` is 1.12 ± 0.051; for `CC(C)COC(=O)N(C)C[C@@H]1OCc2ccccc2-c2ccccc2C(=O)N([C@@H](C)CO)C[C@@H]1C` it is 1.09 ± 0.11; for `O=C(C[C@@H]1CC[C@H](NC(=O)C2CC2)[C@@H](CO)O1)Nc1ccccc1` it is 0.983 ± 0.098.
The figure for `CNC[C@H]1Oc2ncc(-c3cncnc3)cc2C(=O)N([C@@H](C)CO)C[C@H]1C` is 1.01 ± 0.07; for `CN(C)C(=O)c1cccc(-c2ccc([C@@H]3[C@H](CO)N4C(=O)CN(C(=O)C5CCC5)C[C@@H]34)cc2)c1` it is 1.03 ± 0.12; for `N#C[C@@H]1[C@H](c2ccccc2-c2cccc(F)c2)[C@@H](CO)N1S(=O)(=O)c1cccc(F)c1` it is 1.15 ± 0.081.
The figure for `CN1C(=O)c2cc(NS(=O)(=O)CC(F)(F)F)ccc2OC[C@H]2O[C@@H](CC(=O)NCc3ccc(Cl)c(Cl)c3)CC[C@@H]21` is 1.06 ± 0.11; for `CCCC#Cc1ccc([C@H]2[C@H](CO)N3C(=O)CN(C(=O)Nc4cccc(F)c4)C[C@@H]23)cc1` it is 1.03 ± 0.042.
